Source: the supplement of paper PMC10126150
Sequences with one replicate were seen in a single cluster, so their values are uncertain.

System: ATP
Assay: switch fluorescence ratio, 500 uM ATP over buffer (Cy3 cluster intensity, sum of 5 cycles each) (fold (ratio)); higher = stronger signal-on switching upon ATP binding; sequences stand for … in TCGTCGGCAGCGTCAGATGTGTATAAGAGACAGTTTTTTTTTTTTTTTTTTTTTTTTT…TC
Conditions: aptamer strand: ATP DNA aptamer (quencher-CACCTGGGGGAGTATTGCGGAGGAAGG + anchor), 100 nM annealed; ATP concentration: 500 uM; one replicate
Method in brief: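 Per cluster, summed Cy3 intensity from the target cycles was divided by that from the buffer cycles to give the fluorescence ratio, then averaged per switch-domain sequence. Clusters outside 100-1000 RFU were excluded. The Cy3-labelled switching-strand clusters, on a modified Illumina MiSeq flow-cell, were annealed to 100 nM quencher-labelled ATP aptamer and imaged in selection buffer, then after 15 min with 500 uM ATP at 22 °C, for five cycles with NaOH stripping and re-annealing between them.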
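Also: ATP exposure 15 min at 22 °C before imaging.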

Sequence | switch fluorescence ratio
CGTAAGTTAC | 1.31
GAATGGAGGG | 0.996
AACTAATCTA | 1.02
AGCTGCTCTA | 1.07
CTATGGCGAG | 1.02
TGTCAGTAAA | 1.03
GAACGCGGTG | 1.02
ACGACTACGC | 1.35
GACTTATATC | 1.01
TTGCCGCAAC | 4.58
TGTTGTTCTA | 1.02
AGTACATTCC | 1.9
GTCATGTAC | 1.2
GACATTGA | 1.02
AACGGGGCAC | 1.01
GCAGGCAAGC | 1.05
GATACAAGC | 0.995
GACTTACCGT | 1.17
TCAGATTAGA | 1
AGCTAGGTGG | 0.985
GTAATTATAA | 1.01
GATGAGAGCC | 0.976
AGTTGGTCGA | 1.03

Sequence | switch fluorescence ratio
CGTGGTTAGC | 1.02
ATCCCAATGA | 1.29
TAGAGTGGAC | 0.976
ATATACAAGT | 1.02
GGCCTCCCCC | 1.35
ACGGTTTCGG | 1.03
TATTCGATCC | 1
GATTCACAGC | 1.04
AAAAAAACTA | 1.04
CGTCTGAGGG | 0.972
ACTTGGGTAC | 3.4
TTCGTGACGG | 1.01
AAAGCACTGA | 1.11
TAAAGACGAT | 1
AGGTGCATCC | 1
ATACATTTTG | 1
TCAAAATCAG | 1
CGTTGCACCC | 1.03
GGGTCACGTC | 0.967
ACGATTTCCA | 1.01
ACCGGGCTAG | 1.08
GTATGGAGTG | 1.03
ACATTAACGA | 1.16

Sequence | switch fluorescence ratio
GTTGGAGACC | 1.02
GAAGGATGTA | 1.01
GGACAGTTTG | 0.977
ATGGTACATA | 0.994
TTAGACTTAG | 1
TTGTGCTTAT | 0.975
ACTATGAAAG | 0.961
TAGGATGGAT | 0.997
CATGGTTTAG | 0.954
GGGGTTGCCT | 0.959
GTTAATGTCT | 0.946
GATCGCCTCG | 0.981
CCGTTGGAGG | 1.02
TGCAATTAGT | 1.13
TGCTCAGTAC | 1.4
ACGATGCCGG | 0.949
TCCTGACTTG | 1.05
CGGTGATCCG | 0.986
CGAGTATTAG | 1
AGCCTTGGGC | 0.948
TGTCCCAGAT | 1.22
AAATTATTTA | 0.996
GTTCCTTATT | 0.974

Sequence | switch fluorescence ratio
TGGCGAGCT | 1.01
GGAACTCCGG | 1.03
GGACCTATGC | 1.05
GGTTTGTTTC | 0.993
CCCAGGGTTT | 1.62
TCAGTTCCAA | 0.976
TAGGGTTGT | 0.978
GTATGTGTTT | 0.985
TTGAAATCCG | 0.997
GACGCCCACG | 0.99
CTGCGGATAA | 1.12
GCCGATTGTG | 1.03
TTAAACGTAA | 1.16
TGCAGTAAAT | 1.03
GTGTAGAGGC | 1
GTACAGTGTT | 1.01
TAGGGGTTTC | 0.984
CGTATGGCC | 1.11
TCCTCGGATG | 1.02
ACGGAGACCC | 1.09
CATAACTCTT | 1.04
GCGCAGCGAC | 1.15
GGGGCGGCTG | 0.952

Sequence | switch fluorescence ratio
TATACTTCTG | 1.04
CGTTCCTTT | 1.03
AAAGCTGTTG | 1.02
GTTTCTCAAC | 1.01
CTTGGGTCGG | 0.968
GTGAATCTTC | 1
CCATGTTACA | 1
TGTGAATAAC | 1.03
GATTCCGTGC | 1.42
TATGGTCGTC | 0.988
CCGACTGTGT | 1.24
TGGATCAGC | 1.02
CACTACATTT | 1.07
ATCAGTCAGG | 1.01
CATGCTTGC | 1.02
TGAGCGCGTC | 1
ACGTGTCGCC | 0.953
TGTTTTCGGG | 0.996
ACCTCAAGGA | 0.995
AGTTCTAGAG | 1.01
TCTTCTAGAA | 0.965
TAACAATATG | 0.984
GGTAATAAAG | 0.987

Sequence | switch fluorescence ratio
ACTTTATGTC | 1.06
TTATTAATAA | 1
CTGCAAAGGT | 1.08
TCAAAGGC | 1.01
ATATTTACG | 1.03
AATTTTCCGT | 1.02
CGCGTATCTC | 1.19
CAGGCAGAGT | 1.01
TGATAATAAA | 0.995
AACACGCCGT | 1.02
TGATTATGAT | 0.999
TGGGTGAGGT | 1.03
ATTTACGGCT | 0.95
AGTGGGCATG | 1.02
AATACGCGGA | 1.09
AAGGAATTTG | 0.991
AAGACGGATC | 0.983
TATGGTAGTT | 1.07
CAACGACCAG | 1.04
GTTACTATGT | 0.955
ATGATGGGAC | 1.01
AAGAGCGCTA | 1.02
ACATGTTGTG | 0.992

Sequence | switch fluorescence ratio
AAGTCCGGAA | 1.38
TCGCAAAGGG | 1.59
TTATAAGAA | 1.03
GCGGTAAGTA | 0.998
GTGAGAACAT | 1.01
GAGCTTTCAC | 1.02
CTATTGGCGC | 0.981
GCGCCTTCGC | 1.03
CATACTCGAC | 1.26
AGGATCCAC | 1.01
TAAAGTACGA | 1.21
GAGGTACTCA | 1.01
GCGGGAGGGC | 1.07
AAGATAAGAT | 0.956
GCCCTTCGGT | 1.02
GCACGCTCAC | 1.64
TAGGGTACTC | 1.04
CTATTGCGCC | 0.984
GATATATGTC | 0.955
